Assay results as given in the supplement of paper PMC7826260.
Some of the results follow. Viral Rep nickase domains cut single-stranded DNA in vitro (1 h at 37 °C, 3 µM enzyme); the outer parts of the 90-letter strands are left off. Numbers give uncut DNA relative to the enzyme-free pool, as log2; uncut sequences lie near 0, cut ones below; no hit call is given. The scaling is to total reads; values above 0 arise when much of the pool is cut.

How the values were obtained:
Test in all cases: uncleaved DNA left, log2 of reads against the no-enzyme library (log2 ratio); higher = less cleavage (more negative = more Rep cleavage of the k-mer); sequences stand for … in CTCGTCCG…ACCGGAGA
[1] = system: T1, Rep nickase domain of Muscovy duck circovirus
T1 sequence (protein, residues 1-111, tag omitted): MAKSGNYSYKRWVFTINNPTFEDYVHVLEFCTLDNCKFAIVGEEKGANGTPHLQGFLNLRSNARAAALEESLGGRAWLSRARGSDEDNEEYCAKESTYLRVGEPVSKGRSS
Description: (§1)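 A pool of 90-nt single-stranded DNAs with seven random bases just before the constant AC of the nick site (name = the seven bases) was cut by 3 µM recombinant His6-SUMO-tagged Rep nickase domain (300 nM DNA, 50 mM HEPES pH 8.0, 50 mM NaCl, 1 mM MnCl2, 1 h, 37 °C, three replicates). Uncut DNA was amplified and sequenced.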

[2] = system: T2, Rep nickase domain of banana bunchy top virus
T2 sequence (protein, residues 1-94, tag omitted): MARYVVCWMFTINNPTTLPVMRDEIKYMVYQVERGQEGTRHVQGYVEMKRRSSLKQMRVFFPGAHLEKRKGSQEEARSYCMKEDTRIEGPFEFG
Description: as §1

[3] = system: T3, Rep nickase domain of cabbage leaf curl virus
T3 sequence (protein, residues 1-116, tag omitted): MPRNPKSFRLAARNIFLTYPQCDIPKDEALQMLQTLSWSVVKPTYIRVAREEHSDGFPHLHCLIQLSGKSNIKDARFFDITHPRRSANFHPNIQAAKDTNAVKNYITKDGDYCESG
Description: as §1

[4] = system: T4, Rep nickase domain of chickpea chlorotic dwarf virus
T4 sequence (protein, residues 1-124, tag omitted): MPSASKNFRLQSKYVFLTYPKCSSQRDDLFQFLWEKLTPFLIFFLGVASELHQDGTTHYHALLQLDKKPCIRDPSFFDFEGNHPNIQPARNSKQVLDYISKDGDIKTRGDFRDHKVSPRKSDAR
Description: as §1

[5] = system: T5, Rep nickase domain of faba bean necrotic yellows virus
T5 sequence (protein, residues 1-98, tag omitted): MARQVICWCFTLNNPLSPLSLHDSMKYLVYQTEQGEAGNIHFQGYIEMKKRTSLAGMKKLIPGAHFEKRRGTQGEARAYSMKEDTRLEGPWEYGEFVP
Description: as §1

[6] = system: T6, Rep nickase domain of maize striate mosaic virus
T6 sequence (protein, residues 1-117, tag omitted): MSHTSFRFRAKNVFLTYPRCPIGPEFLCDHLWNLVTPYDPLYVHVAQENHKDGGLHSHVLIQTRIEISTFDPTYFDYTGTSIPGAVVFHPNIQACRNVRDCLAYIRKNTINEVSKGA
Description: as §1

[7] = system: T7, Rep nickase domain of porcine circovirus 2
T7 sequence (protein, residues 2-116, tag omitted): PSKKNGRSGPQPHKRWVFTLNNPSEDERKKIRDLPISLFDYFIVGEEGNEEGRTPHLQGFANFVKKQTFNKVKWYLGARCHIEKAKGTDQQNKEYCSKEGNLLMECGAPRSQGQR
Description: as §1

[8] = system: T8, Rep nickase domain of tomato yellow leaf curl virus
T8 sequence (protein, residues 1-136, tag omitted): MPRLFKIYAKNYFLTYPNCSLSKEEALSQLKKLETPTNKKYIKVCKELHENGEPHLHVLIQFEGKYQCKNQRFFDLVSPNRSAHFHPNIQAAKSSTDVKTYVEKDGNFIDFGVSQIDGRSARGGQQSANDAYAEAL
Description: as §1

[9] = system: T9, Rep nickase domain of wheat dwarf virus
T9 sequence (protein, residues 1-137, tag omitted): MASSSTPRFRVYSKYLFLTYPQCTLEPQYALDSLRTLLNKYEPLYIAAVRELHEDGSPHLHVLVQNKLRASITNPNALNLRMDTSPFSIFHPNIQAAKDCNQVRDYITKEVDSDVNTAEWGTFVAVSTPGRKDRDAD
Description: as §1

| Sequence | uncleaved DNA left (log2) [1] | uncleaved DNA left (log2) [2] | uncleaved DNA left (log2) [3] | uncleaved DNA left (log2) [4] | uncleaved DNA left (log2) [5] | uncleaved DNA left (log2) [6] | uncleaved DNA left (log2) [7] | uncleaved DNA left (log2) [8] | uncleaved DNA left (log2) [9] |
| --- | --- | --- | --- | --- | --- | --- | --- | --- | --- |
| TATTCGT | -3.4 | -1.49 | -0.653 | -1.45 | 0.0294 | -1.31 | -3.73 | -0.0587 | -0.226 |
| TTACCGG | -0.00738 | 0.154 | 0.554 | 1.35 | -0.0102 | 1.96 | 0.0717 | -0.0071 | 0.18 |
| CACGTAC | -0.0606 | -0.196 | -0.368 | -0.311 | -0.0603 | -0.777 | -0.0371 | -0.156 | -0.066 |
| TTACCCA | -0.18 | 0.0318 | -0.0394 | -2.15 | -0.0372 | -0.173 | -1.84 | 0.0891 | 0.0116 |
| GGATGAA | 0.122 | 0.0663 | 0.602 | 1.39 | 0.0784 | 1.89 | 0.273 | 0.0925 | 0.181 |
| TGAAGTT | 0.0333 | 0.0346 | -0.251 | -2.16 | 0.0823 | -0.385 | -0.321 | 0.0855 | -0.109 |
| TCTAACG | -0.0798 | -0.0275 | -0.775 | -0.762 | -0.0409 | -1.18 | 0.0888 | -0.0727 | -0.143 |
| AAAGTGC | 0.0137 | -0.0599 | -0.592 | -0.742 | 0.118 | -1.34 | 0.142 | 0.055 | -0.0181 |
| GGCAACG | 0.0339 | -0.0416 | -0.156 | -0.0919 | 0.0154 | -0.217 | 0.113 | -0.0554 | -0.0667 |
| AGCACTG | -0.025 | 0.189 | 0.0173 | 0.599 | 0.146 | 1.72 | 0.138 | 0.0952 | 0.177 |
| AGTTAGA | 0.0323 | -0.0407 | -0.0702 | -0.0503 | -0.0596 | -0.777 | -0.159 | 0.0337 | -0.0218 |
| TTCCGAC | 0.101 | -0.0173 | 0.417 | 0.383 | 0.088 | -0.0079 | 0.135 | 0.0553 | 0.15 |
| TCAATAT | 0.167 | 0.0315 | 0.133 | -0.831 | -0.00806 | -0.407 | -0.0309 | 0.0201 | 0.0217 |
| TCTGTGG | -0.00861 | -0.0471 | 0.208 | 0.474 | 0.056 | 0.0977 | -0.0353 | -0.0445 | -0.0536 |
| AGGGCAA | 0.262 | 0.29 | 0.779 | 1.78 | 0.148 | 1.88 | 0.452 | 0.198 | 0.271 |
| CCCGGTG | 0.198 | -0.0614 | -0.343 | -0.413 | 0.222 | -0.656 | 0.295 | 0.215 | -0.0725 |
| AGCTGAA | -0.041 | -0.116 | 0.232 | 1.47 | -0.0456 | 1.25 | -0.0525 | -0.0719 | 0.0141 |
| GCCCATC | 0.0692 | 0.0243 | 0.16 | 0.603 | -0.0284 | 0.0903 | 0.0835 | 0.0578 | -0.112 |
| TGAGTTT | -0.0161 | -0.0955 | 0.0937 | -1.71 | 0.0827 | 0.243 | -0.101 | -0.0453 | -0.0534 |
| GCGCAGT | 0.146 | 0.102 | 0.203 | 0.622 | 0.0297 | 0.616 | 0.185 | 0.123 | 0.195 |
| GTCATGG | 0.123 | 0.247 | 0.342 | 0.924 | 0.0504 | 1.74 | 0.219 | 0.197 | 0.177 |
| TGTAAAC | -0.0224 | 0.121 | 0.439 | 0.675 | -0.116 | 1.32 | 0.064 | 0.0166 | 0.102 |
| TCGAGAT | 0.0497 | -0.099 | 0.303 | 0.956 | -0.136 | 1.35 | -0.0867 | -0.2 | -0.0696 |
| ACCATTG | 0.0125 | 0.0234 | -0.512 | 0.191 | 0.0578 | -0.542 | 0.152 | 0.0784 | -0.00798 |
| ACGCACA | 0.0114 | -0.0353 | -0.0615 | -0.932 | 0.0773 | -0.574 | -0.0629 | 0.0176 | -0.00262 |
| CCAGACA | -0.149 | -0.122 | 0.00493 | -0.953 | -0.0552 | -0.0717 | -0.0572 | -0.223 | -0.0789 |
| TTCATTT | -0.107 | -0.169 | -0.198 | -2.08 | -0.0634 | -0.786 | -0.541 | -0.2 | -0.223 |
| AGGCCAC | -0.0622 | 0.027 | 0.309 | 0.323 | 0.0556 | 0.83 | 0.0725 | -0.00174 | 0.0237 |
| CATCCGG | 0.0899 | 0.109 | 0.38 | 1.17 | 0.0288 | 1.06 | 0.118 | 0.0176 | 0.0444 |
| GATTGTA | -1.52 | -0.433 | 0.014 | -0.117 | -0.0395 | -0.404 | -2.23 | 0.0883 | 0.0354 |
